In PubChem BioAssay AID1745853 (National Center for Advancing Translational Sciences (NCATS), 2022):
This is one part of the list. Shown are side measurements of this screen, not its main read-out; they come without a call.

Experiments:
Experiment in all cases: Primary Screen for Target Class Profiling of Small Molecule Inhibitors of Methyltransferases
[1] = biological target: Glycine N-methyltransferase (Homo sapiens) (UniProt Q14749); details: purified enzyme, MTase-Glo SAH luminescence; measured here: GNMT inhibition; at 40 µM; stronger effect = lower value
Outline: (§1)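 Each enzyme was assayed with SAM and its substrate. SAH formation detected by MTase-Glo luminescence; single-point 40 uM screen[…].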

[2] = biological target: Guanidinoacetate N-methyltransferase (Homo sapiens) (UniProt Q14353); details: purified enzyme, MTase-Glo SAH luminescence; measured here: GAMT inhibition; at 40 µM; stronger effect = lower value
Outline: as §1

[3] = biological target: Histamine N-methyltransferase (Homo sapiens) (UniProt P50135); details: purified enzyme, MTase-Glo SAH luminescence; measured here: HNMT inhibition; at 40 µM; stronger effect = lower value
Outline: as §1

[4] = biological target: Nicotinamide N-methyltransferase (Homo sapiens) (UniProt P40261); details: purified enzyme, MTase-Glo SAH luminescence; measured here: NNMT inhibition; at 40 µM; stronger effect = lower value
Outline: as §1

[5] = biological target: Phenylethanolamine N-methyltransferase (Homo sapiens) (UniProt P11086); details: purified enzyme, MTase-Glo SAH luminescence; measured here: PNMT inhibition; at 40 µM; stronger effect = lower value
Outline: as §1
% is set by controls: 0 for no effect and ±100 for the full control effect.

SMILES	activity change, negative = inhibition [1]	activity change, negative = inhibition [2]	activity change, negative = inhibition [3]	activity change, negative = inhibition [4]	activity change, negative = inhibition [5]
O=C(COc1cccc2c(=O)[nH]ccc12)c1ccccc1	-4.93%	1.1%	0.889%	-8.76%	-6.62%
Cc1cc2c(cc3n2CC(C)(C(=O)NC2CCCCCC2)N(Cc2ccc(OC(C)C)cc2)C3=O)o1 (stereo not given)	2.69%	0.22%	5.18%	-3.19%	1.86%
CCNC(=O)[C@H]1O[C@@H](n2cnc3c(N)nc(NCCc4ccc(CCC(=O)O)cc4)nc32)[C@H](O)[C@@H]1O	2.29%	-0.285%	5.92%	-10.5%	-1.29%
CCn1c(=O)n(CC)c2cc(S(=O)(=O)Nc3ccccc3)ccc21	12.6%	2.23%	11.3%	-3.08%	6.99%
CC(C)OCCCNC(=O)C1(C)Cn2c(cc3ccccc32)C(=O)N1Cc1ccccc1 (stereo not given)	8.01%	4.2%	9.03%	0.017%	2.37%
CC[C@H]1CN(C(C)=O)CC[C@H]1CC(=O)NCCOC	-2.15%	-2.73%	0.834%	-3.96%	2.06%
Cn1c(=O)c2ccc(C(=O)NC3CCCC3)cc2n2c(SCc3cccc(F)c3)nnc12	-9.37%	-3.23%	-9.07%	-3.94%	-5.87%
O=C(CN1C(=O)C2(CCCCC2)C1c1ccccc1)NCCc1c[nH]c2ccccc12 (stereo not given)	-12.2%	2.98%	-5.77%	-12%	0.633%
Cc1ccc(CN2C(=O)c3ccc(-c4ccccc4)n3CC2(C)C(=O)NC2CCCCCCC2)cc1 (stereo not given)	-4.16%	-0.966%	-10.3%	-17.1%	-8.42%
CNCCC(c1cccs1)c1ccc(O)c2ccccc12 (stereo not given)	3.32%	11.8%	-80.3%	-15%	-2.25%
CC(C)n1c(=O)c2ccc(C(=O)NC3CCCC3)cc2n2c(=O)n(Cc3ccc(F)cc3)nc12	-1.87%	0%	5.71%	2.73%	3.41%
Cc1cccc(CN2C(=O)c3ccc(-c4ccccc4)n3CC2(C)C(=O)NC2CCCCC2)c1 (stereo not given)	-0.491%	3.74%	-0.359%	0.955%	-0.408%
CN(CC(=O)N1CCCC1)S(=O)(=O)c1ccc2[nH]c3c(c2c1)CCCC3	-11.5%	-2.69%	-3.73%	-3.25%	-4.51%
CNC(=O)c1c(-c2ccc(F)cc2)oc2cc(N(CCO)S(C)(=O)=O)c(C3CC3)cc12	4.74%	1.29%	7.76%	-8%	-2.05%
Cc1cc(C)c2[nH]c(C(=O)N(C)Cc3ccccc3-n3cccn3)c(C)c2c1	0.293%	-4.22%	-3.02%	-8.77%	-5.46%
C[C@](N)(Cc1ccc(O)cc1)C(=O)O	-3.3%	7.42%	5.44%	-7.27%	-5.11%
CC1(C(=O)NC2CCCC2)Cn2c(cc3sccc32)C(=O)N1CCCc1ccccc1 (stereo not given)	-1.81%	4.55%	-4.04%	-5.13%	-4.5%
